Results taken from article PMC6919601, “Identification of Plasmodium dipeptidyl aminopeptidase allosteric inhibitors by high throughput screening” (PLoS ONE, 2019).
Among all 110,000 compounds or so, about 230 (0.21%) showed an effect of 50% or more. Some of the results follow.

These compounds were tested against DPAP1 (Plasmodium falciparum, UniProt Q8IIJ9) (assay: primary screen, percent inhibition; read by cleavage of a fluorogenic dipeptide substrate; higher = more effect of the substance).
Chain of DPAP1 (Q8IIJ9 whole entry, looked up): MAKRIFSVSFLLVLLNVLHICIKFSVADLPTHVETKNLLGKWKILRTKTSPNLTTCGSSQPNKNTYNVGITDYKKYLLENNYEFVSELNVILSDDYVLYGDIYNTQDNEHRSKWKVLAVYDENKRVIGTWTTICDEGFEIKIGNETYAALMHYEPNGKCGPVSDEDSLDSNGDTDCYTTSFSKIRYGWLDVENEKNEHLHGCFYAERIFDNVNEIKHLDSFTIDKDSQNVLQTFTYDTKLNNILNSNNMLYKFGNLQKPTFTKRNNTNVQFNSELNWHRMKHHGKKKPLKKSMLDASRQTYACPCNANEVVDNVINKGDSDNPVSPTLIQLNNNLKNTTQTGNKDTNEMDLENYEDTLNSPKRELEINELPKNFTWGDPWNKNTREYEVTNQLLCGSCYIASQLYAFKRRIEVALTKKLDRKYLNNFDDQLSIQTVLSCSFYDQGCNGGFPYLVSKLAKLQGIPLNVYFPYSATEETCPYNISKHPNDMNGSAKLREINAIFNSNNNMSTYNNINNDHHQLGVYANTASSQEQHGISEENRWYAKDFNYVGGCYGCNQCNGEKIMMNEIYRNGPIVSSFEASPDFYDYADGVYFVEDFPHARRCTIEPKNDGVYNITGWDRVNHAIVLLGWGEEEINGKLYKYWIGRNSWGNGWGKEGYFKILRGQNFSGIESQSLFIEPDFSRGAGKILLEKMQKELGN
Parameters: species or system P. falciparum D10 trophozoite lysates; single well
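Also: 30 min substrate incubation versus DMSO and 10 µM JCP410 controls.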

| Structure (SMILES) | % Inhibition @ 10 uM |
| --- | --- |
| CC(C)CC(C(=O)NCC#N)c1cccc(-c2ccc(S(=O)(=O)NCCN3CCOCC3)cc2)c1 (stereo not shown) | -3.04% |
| CCN(CC)S(=O)(=O)c1ccc(NC(=O)c2ccc(C(C)(C)C)cc2)cc1 | 6.15% |
| CC1=CC2=NC(=O)/C(=C\c3cc(C)n(-c4ccc(F)cc4)c3C)C(=N)N2O1 | -7.05% |
| Nc1ccc2c(c1)C(=O)Cc1ccccc1S2 | -8.83% |
| CC(NC(=O)Cn1nc(-c2ccccc2)ccc1=O)c1ccccc1 (stereo not shown) | 0.514% |
| Cc1cccc2c1-c1sc(C(=O)NC3CCCCC3)cc1CO2 | -1.37% |
| CCOc1ccccc1NC(=O)C(C)N(c1ccc(OC)cc1)S(C)(=O)=O (stereo not shown) | -3.18% |
| Cc1ccc(-n2nc3c(=O)n(CCCC(=O)N4CCC(C(N)=O)CC4)nc(C)c3c2C)cc1 | -0.307% |
| Cc1cccc(OCC(=O)N2CC3(C)CC2CC(C)(C)C3)c1C (stereo not shown) | -3.51% |
| CC(C)NC(=O)N1CCN(c2ccncc2S(=O)(=O)N2CCCCC2)CC1 | -10.2% |
| N#CCNC(=O)C(CS(=O)(=O)Cc1ccccc1OC(F)F)c1cccc(-c2ccccc2)c1 (stereo not shown) | -3.49% |
| CCN(Cc1ccccc1)C(=O)c1cc(C)[nH]n1 | -0.717% |
| O=C(NC1CCCc2ccccc21)C1CCN(S(=O)(=O)c2ccc3nc(O)ccc3c2)CC1 (stereo not shown) | -4.68% |
| O=C(/C=C\Nc1ccccc1Br)c1ccc2c(c1)OCO2 | -2.24% |
| O=C(NCCc1ccc(Cl)cc1)C1CCN(S(=O)(=O)c2cccs2)CC1 | -4.79% |
| CC1=C(C(=O)Nc2ccc(F)cc2)C(c2cccc(Cl)c2)C2=C(O)CC(C)(C)CC2=N1 (stereo not shown) | -0.864% |
| CCc1nc2ccccc2c(NC(=O)CNC(C)(C)CC(C)(C)C)c1C | 3.21% |
| O=S(=O)(c1ccccc1)c1cccc2c1N=S=N2 | -5.28% |
| CC(C)(C)c1[nH]nc2c1C(c1ccncc1)C(C#N)=C(N)O2 (stereo not shown) | -2.46% |
| CCOc1ccc(C=C2C(=O)OC3(CCCCC3)OC2=O)cc1OC | -5.08% |
| CC1=C(C(=O)Nc2ccccn2)C(c2ccc(N(C)C)cc2)C2=C(O)CCCC2=N1 (stereo not shown) | -6.34% |
| Cc1csc(NC(=O)C(=O)c2cc(C)n(-c3ccccc3F)c2C)n1 | -1.06% |
| COc1ccccc1Nc1nc(-c2ccc(C)cc2)c(C)s1 | 1.26% |
| CCc1ccccc1-n1nnc(-c2nc(-c3ccccc3C)no2)c1N | 5.71% |
| O=c1oc(-c2ccc(Br)cc2)nc2c1cnn2-c1ccccc1 | 3.05% |

| Structure (SMILES) | % Inhibition @ 10 uM |
| --- | --- |
| CC(C)SC1=NSC2=NC(=O)/C(=C\c3ccc(F)cc3)C(=N)N21 | 0.205% |
| Fc1cccc(-c2nn3c(Cn4nnc5ccccc54)nnc3s2)c1 | 2.89% |
| COc1ccc(NCC2CCCCC2)cc1OC | -5.44% |
| COCCN1C(=O)C(O)=C(C(=O)c2ccc(OC)c(C)c2)C1c1cccc(Br)c1 (stereo not shown) | -1.61% |
| O=C(c1ccc(Cl)cc1)n1c(=O)oc2cc(S(=O)(=O)N3CCCCC3)ccc21 | 2.32% |
| O=C(N1CCOCC1)C(O)(c1ccccc1)c1ccccc1 | -2.03% |
| CN(C)c1nc(OC(C(F)(F)F)C(F)(F)F)nc(N(c2ccccc2)c2ccccc2)n1 | -2.51% |
| O=S(=O)(c1c[nH]cn1)N1CCCCCC1 | -0.499% |
| O=c1c2c(-c3ccccc3)csc2nc2n1CCCCC2 | -0.28% |
| Cc1c(CC(=O)NCCc2ccc(F)cc2)c(=O)oc2cc(O)ccc12 | -0.808% |
| CCCCNC(=O)COc1ccc(C)cc1 | 4.33% |
| COc1ccccc1CNC(=O)c1ccc(Br)o1 | 1.05% |
| O=C1N=C(N2CCOCC2)S/C1=C\c1c2ccccc2cc2ccccc12 | 7.75% |
| CCOc1ccc(C(=O)NCCN2CCCC2)cc1 | 3.53% |
| COc1cc2c(cc1OC)C(c1cc(OC)c(OC)c(OC)c1)N(C)CC2 (stereo not shown) | -0.807% |
| CC(=O)c1cccc(NC(=O)COc2ccc(Cl)cc2Br)c1 | -3.26% |
| COc1ccc(Br)cc1CNC(=O)c1ccc2nc(N3CCCCC3)sc2c1 | 0.0882% |
| CC(C)C[C@H](NC(=O)c1ccc(Oc2ccccc2)cc1)C(=O)NCC#N | 0.174% |
| COCCN(C(=O)c1sc2nc3n(c(=O)c2c1C)CCCCC3)C1CCN(C(C)=O)CC1 | -10.4% |
| CCC1CCCCN1CCCNC(=O)Cn1nc(-c2ccc(C)cc2)ccc1=O (stereo not shown) | -2.99% |
| Cc1cc(C)c(S(=O)(=O)NCCc2ccccc2)c(C)c1 | -4.91% |
| Cc1ccc(S(=O)(=O)N2CCC(C(=O)N3CCC4(CC3)OCCO4)CC2)cc1 | -1.34% |
| COc1ccc(OC)c(NC(=O)c2cccnc2)c1 | 3.85% |
| Cc1ccccc1N1C(=O)C(Cl)=C(Nc2ccc(F)cc2)C1=O | -0.99% |
| COC(=O)/C(C#N)=C/c1c(Oc2ccc(C)cc2)nc2c(C)cccn2c1=O | 3.63% |

| Structure (SMILES) | % Inhibition @ 10 uM |
| --- | --- |
| COc1ccccc1OC(C)C(=O)N(Cc1ccc(C)o1)C1CCS(=O)(=O)C1 (stereo not shown) | 2.19% |
| COc1cc(C2C3=C(O)CCCC3=NC(C)=C2C(=O)Nc2cc(C)ccn2)ccc1OCC(N)=O (stereo not shown) | -1.98% |
| O=C(Cc1noc2ccccc12)NCc1ccccc1Cl | -8.99% |
| CCC1CCCCN1C(=O)Cn1c2ccc(OC)cc2c2nc3n(c(=O)c21)CCS3 (stereo not shown) | -6.65% |
| CCc1c(O)n(-c2ccccc2)c(SCc2ccccc2)nc1=O | -2.02% |
| COc1nc2c(c(=O)n(C)c(=O)n2C)n1Cc1c(Cl)cccc1Cl | 3.21% |
| CCN(CC)c1cnn(-c2ccccc2)c(=O)c1N | 0.273% |
| COc1ccc(OC)c(Cn2c(-c3cc(OC)ccc3OC)nc3ccccc32)c1 | 2.73% |
| CCOC(=O)c1c(NC(=O)N2CCC(CN3CCc4ccccc4C3)CC2)sc2c1CCCC2 | 2.22% |
| CCOC(=O)c1cc(-c2cccc(N)c2)nc2ccccc12 | 5.01% |
| COC(=O)c1ccc(/C=c2\sc3nc(-c4ccccc4C)nn3c2=O)cc1 | -2.98% |
| COc1ccc(S(=O)(=O)c2c(C(=O)c3ccc(C)cc3)cnc3ccc(OC)cc23)cc1 | -9.3% |
| CCOCCCNC(=O)c1ccc2c(Cl)c3c(nc2c1)CCCC3 | -3.06% |
| Cc1ccc(CNC(=O)[C@H](CCS(C)(=O)=O)N2Cc3ccccc3C2=O)cc1 | 2.93% |
| Cc1ccc(C2CC(c3ccco3)n3ncnc3N2)cc1 (stereo not shown) | -10.5% |
| CCOC(=O)N1CCN(C(=O)c2nc(-c3cccc(F)c3)n3c2CCCCC3)CC1 | -7.8% |
| Cc1ccc(N2C(N)=C(C#N)C(c3cccnc3)C3=C2CC(C)(C)CC3=O)cc1 (stereo not shown) | -1.44% |
| Cc1cc(-c2ccc(O)cc2)nc2ccc3ccccc3c12 | -1.97% |
| COc1ccc(-c2cc3c(=O)n(CC(=O)N4CCN(Cc5ccccc5)CC4)ncn3n2)cc1 | 2.27% |
| O=S(=O)(C=C(c1ccccc1)c1ccccc1)c1ccccc1 | -3.26% |
| CC1(C(=O)NC2CCCCCC2)Cc2ccccc2C(=O)N1Cc1ccc(F)cc1 (stereo not shown) | 1.72% |
| COc1ccc(CNS(=O)(=O)c2ccc3c(c2)OCC(C(=O)N2CCCCC2)O3)cc1 (stereo not shown) | 7.04% |
| Cc1ccc(-c2cn3c(n2)sc2cc(C(=O)N4CCC(N5CCCCC5)CC4)ccc23)cc1 | 27.5% |
| CCOc1ccc2c(c1)C(SCC(=O)NCc1ccc(F)cc1)CC1(CCCC1)O2 (stereo not shown) | 4.47% |
| CC(NC(=O)c1cc2c(Cl)ccc3c2n1CCO3)c1ccccc1 (stereo not shown) | 4.28% |

| Structure (SMILES) | % Inhibition @ 10 uM |
| --- | --- |
| CCOC(=O)c1[nH]c(C)c(C(=O)NCCCN(C)C)c1C | 0.0579% |
| Cc1cc(C)c(NC(=O)CN2CCN(C/C=C/c3ccccc3)CC2)c(C)c1 | 6.77% |
| Cn1c(=O)c2c(nc(N3CCNCC3)n2C)n(C)c1=O | 2.73% |
| Cc1cccc(OCCCCCCc2c(C)n[nH]c2C)c1C | 0.0792% |
| COc1ccc(CCNC(=O)CN2C(=O)c3ccccc3C2=O)cc1 | 1.33% |
| O=C(CN1C(=O)C2CCCCC2C1=O)Nn1cnnc1 (stereo not shown) | 3.27% |
| O=C(c1ccc(N2CCOCC2)cc1)c1cc(C(=O)N2CCOCC2)ccc1-c1ccc(Br)cc1 | -2.12% |
| CCOc1ccc(C(=O)N2Cc3cc(OC)c(OC)cc3C3(CCCC3)C2)cc1OC | -1.72% |
| OC1(c2ccc(Br)cc2)CCN(Cc2cccc(Br)c2)CC1 | -8.55% |
| Cc1cc(C)c(S(=O)(=O)NCC2CCC(C(=O)N3CCCC3)CC2)c(C)c1 (stereo not shown) | -0.971% |
| CCCCOc1ccc(-c2ncc(C(=O)OCC)c(N)n2)cc1 | -2.12% |
| CCN(CC)CCCN(C)C(=O)Cn1ncc2c3ccccc3nc-2c1O | 1.93% |
| O=C(NCCc1ccccc1)c1c2c(nc3ccccc13)CCCC2 | -7.85% |
| CCC(C)Nc1nc2c(c(=O)n(C)c(=O)n2C)n1Cc1ccccc1 (stereo not shown) | -1.6% |
| COc1ccc(N(CC(=O)N2CCCCCC2)S(=O)(=O)c2ccccc2)cc1Cl | -0.251% |
| C=CCSc1ncc(Cl)c(C(=O)Nc2sc3c(c2C(=O)NCC)CCCC3)n1 | -4.54% |
| CCCCN(CCCC)CCNC(=O)Cn1nc(-c2ccccc2)ccc1=O | 0.514% |
| Cn1c(=S)[nH]c2c(c1=O)C1(CCCC1)Cc1ccccc1-2 | -4.15% |
| COC(=O)c1ccc2c(O)c(S(=O)(=O)c3ccc(OC)cc3)c(O)nc2c1 | -0.326% |
| Cc1nnc2c(SCc3ccccc3)nc3ccccc3n12 | -0.0709% |
| CCOc1cccc(C2C(C(=O)OC)=CN(Cc3ccc(OC)cc3)C=C2C(=O)OC)c1 | -1.69% |
| CCN1CCN(Cc2cc(C(C)(C)C)c(O)c(C(C)(C)C)c2)CC1 | 1.63% |
